The record followed here is the supplement of paper PMC11417369.

± gives the standard deviation of the averaged measurements. This is one part of the list.

For this assay, the system named is PfAP2-LT AP2 domain (GST-tagged). Put plainly: gcPBM binding intensity (ln(normalized median fluorescence intensity)); higher = stronger DNA binding. In short, it runs like this: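 An Agilent 4 × 180k array carrying primer-extended double-stranded 36-bp intergenic genomic probes and negative controls received GST-tagged P. falciparum DNA-binding domains expressed in E. coli, about 25 μg on average, for 1 h. The binding buffer contained 1× PBS, 1% milk, 0.2 mg/ml BSA, 0.5% salmon testes DNA and 0.03% Triton X-100. Binding intensity is the top Masliner-normalised natural-log median intensity across replicate spots of either probe orientation, read after Alexa488 anti-GST antibody staining and a 488 nm scan.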
With “ATAATATATATGAAATGTACATAAATTTAATGCGAC [XGTACX_site5394]”, the “gcPBM binding intensity (ln)” value worked out at 9.18 ± 0.45. “TAAATACAAGTAAAAAGTACAGAAAAATTATATATA [XGTACX_site1758]”: the “gcPBM binding intensity (ln)” value was determined as 8.81 ± 0.54. With “TTTATTTGGACATATACACACTTAAATATGTTTATT [CACACA_site6021]”, the “gcPBM binding intensity (ln)” value turned out to be 8.87 ± 0.34. With “TTTATTTTGTTTTCTTGTACATAAATAATTACATAT [XGTACX_site4227]”, the “gcPBM binding intensity (ln)” value is 8.85 ± 0.48. As to “TATAAAAAATTCAATACACACCATATATAAATATAT [CACACA_site6060]”, the “gcPBM binding intensity (ln)” value was determined as 8.84 ± 0.4.

In the case of “AAGAGAAATGGGCACACACACACATATTATAGATAT [CACACA_site6828]”, the “gcPBM binding intensity (ln)” value was 9.8 ± 0.21. As to “TGATTCACTATAGTAGTGCATATTATATATATATAT [GTGCAC_site9975]”, the “gcPBM binding intensity (ln)” value turned out to be 8.94 ± 0.3.

Take “TATAATAATTCATAATGTACTTTTATCAAAAAAGTA [XGTACX_site6868]”: the “gcPBM binding intensity (ln)” value worked out at 8.37 ± 0.38. Consider “CAAATACACGGACACACACACACAAAAAAAAAAAAA [CACACA_site6385]”, for which the “gcPBM binding intensity (ln)” value came out at 10 ± 0.71. “AAATTATTGTAAAATAGTACAGTGAAACATAAAGTT [XGTACX_site589]”: the “gcPBM binding intensity (ln)” value is 8.93 ± 0.43. The figure for “TTTTTATTCAACAAAAATATCAAACATAATTATAAA [CACACA_negctrl_site616]” is 8.21 ± 0.37. Consider “AATATTTATATTTACACACACATAATACATATATGT [CACACA_site33]”, for which the “gcPBM binding intensity (ln)” value stood at 9.46 ± 0.26. On to “TTCCTTTAACCCTGCACACATACATACATTTATATG [CACACA_site3953]”, for which the “gcPBM binding intensity (ln)” value was determined as 9.29 ± 0.46. On to “ATTTTTATGTCTTTCTATAAATCGAAAATATACATA [CACACA_negctrl_site477]”, for which the “gcPBM binding intensity (ln)” value is 8.41 ± 0.36. The result for “ATATACAACTAAAGAACACACATCATTGTTCATTGG [CACACA_site3681]” reads 8.94 ± 0.35; that for “AAAAAACGCACTCGTACACACATATTTTCTTTCTAA [CACACA_site3089]”, 9.05 ± 0.38.

For the sequence “ATATAATCAACTGCAAAGGTTTAAAAGGAAAAAATA [CACACA_negctrl_site989]”, the “gcPBM binding intensity (ln)” value is 8.66 ± 0.57. Regarding “TTAATTACACAAAAAAGTACTTGATATTGTTTATTA [XGTACX_site3449]”, the “gcPBM binding intensity (ln)” value is 8.48 ± 0.43.

With “AATATTTACCAGAAAATAAAAATATGTATATATATA [CACACA_negctrl_site351]”, the “gcPBM binding intensity (ln)” value was 8.63 ± 0.47.

As to “CGATATTCTAAGGATAGTACATAATAAAATAGAGTA [XGTACX_site4224]”, the “gcPBM binding intensity (ln)” value worked out at 8.69 ± 0.51.

Turning to “ATTTATATTTTTTAATGTACATTTATATGTATACAA [XGTACX_site4555]”, the “gcPBM binding intensity (ln)” value amounted to 8.76 ± 0.51.

Turning to “TAAAATAGAAATATATGTACATATATATATGTATAT [XGTACX_site4134]”, the “gcPBM binding intensity (ln)” value came out at 8.82 ± 0.47. The result for “TATTTTTTTAAAATAGGTACACAATCAAACATTTAT [XGTACX_site8785]” reads 8.41 ± 0.4; that for “TTATAGACATATATAGGTACACATATTTTCAATCCC [XGTACX_site8230]”, 8.79 ± 0.33; that for “ATTTATTAATCATATACACACATATATTTGTATTTA [CACACA_site1336]”, 9.07 ± 0.46. “ATATATATATATAATACACACATAAATGAATATATA [CACACA_site316]”: the “gcPBM binding intensity (ln)” value is 9.12 ± 0.35. Turning to “TTTATATAATATTCTACACACCAACAACAAACATAT [CACACA_site4478]”, the “gcPBM binding intensity (ln)” value was determined as 9.1 ± 0.26. On to “GCATTGATCAAACATACACACATGGTTAATAAAAAT [CACACA_site2085]”, for which the “gcPBM binding intensity (ln)” value was 9.25 ± 0.33. For the sequence “GTGATTTCTATGAATTGTACTTAAATATAGTTATAT [XGTACX_site231]”, the “gcPBM binding intensity (ln)” value was determined as 8.69 ± 0.43.

As to “CGTCCAAAATATCCTTCACACACGAACAGTTTCATT [CACACA_site2729]”, the “gcPBM binding intensity (ln)” value came out at 9.2 ± 0.43. The result for “CTATAATATTATAACAGTACATAATATTATATATAT [XGTACX_site1414]” reads 8.66 ± 0.33; that for “TTTAAATAAAAATGGAGTACTCTAAAAAAAAAAAAA [XGTACX_site1233]”, 8.44 ± 0.47. Turning to “ATATGAAAAACTTCATGTACTTATTATAAAATATAA [XGTACX_site2725]”, the “gcPBM binding intensity (ln)” value amounted to 8.4 ± 0.52. For the sequence “TATATTTTTTAAAAAAGTACAAAGTAATTATTGATT [XGTACX_site2420]”, the “gcPBM binding intensity (ln)” value was determined as 8.49 ± 0.45. Regarding “TGAAATGAAAGAACAGCACACATATATATTATATAT [CACACA_site8613]”, the “gcPBM binding intensity (ln)” value was 9.04 ± 0.45. On to “GTAGTACATTCTAGAATACACACCTATATATATATA [CACACA_site522]”, for which the “gcPBM binding intensity (ln)” value was determined as 9.34 ± 0.28. The figure for “ATTCTAATTTTATGAAACGATTATTTTGAATTCATT [XGTACX_negctrl_site578]” is 8.6 ± 0.45; for “ATTTTTAATTTTTTCACACATATATTTAAAATAAAA [CACACA_site4799]” it is 8.26 ± 0.52. Take “GATTACCTTTTTTTTTTTTTTTTTTTTTTTTTTTTC [CACACA_negctrl_site147]”: the “gcPBM binding intensity (ln)” value amounted to 8.66 ± 0.49. As for “ATAAAAAAAAATATATGTACATATATAAATTGATAT [XGTACX_site7409]”, the “gcPBM binding intensity (ln)” value is 9 ± 0.55. Turning to “CTTTTTTTTTTGTATTGTACTTTATTTTTACATCGT [XGTACX_site2918]”, the “gcPBM binding intensity (ln)” value turned out to be 9.02 ± 0.5. Turning to “AATAGTGTCATAAAAACTATTATCATATAATGTGAA [CACACA_negctrl_site1578]”, the “gcPBM binding intensity (ln)” value amounted to 8.62 ± 0.45. The result for “TAATTTATAACACGCGCACACATATATATATAGTAA [CACACA_site121]” reads 9.21 ± 0.35; that for TTGTTGTGTATTATCGTGCACATAATATAAAAGATT, 8.83 ± 0.33; that for “TTTCTTTTTAACTCTTACATAATAGGTGGTAGAAGG [TGCATGCA_negctrl_site176]”, 8.35 ± 0.46.
